The whole screen tested about 39,000 compounds, of which about 220 (0.56%) showed activity. The list shows a part of the results.
test system: Escherichia coli K-12 BW25113; test: relative growth (OD600 normalised to plate interquartile mean) (fraction); higher = less growth inhibition, active = 0.2 or less; settings: 50 µM; LB; incubation time: overnight (16-24 h)
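Further: static incubation at 37 °C against the wild-type strain, values averaged over two biological replicates.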

SMILES	relative growth
COCCNC(=O)C[C@H]1CC[C@H]2[C@@H](COC[C@@H](O)CN2C(=O)Nc2ccc3c(c2)OCO3)O1	inactive: 1.02
O=C(O)[C@H]1O[C@@H](Oc2c(-c3ccc(O)cc3)oc3cc(O)cc(O)c3c2=O)[C@H](O)[C@@H](O)[C@@H]1O	inactive: 1.01
CO[C@H](CN(C)S(=O)(=O)c1cn(C)cn1)[C@H](C)CN(C(=O)Nc1ccc(C(F)(F)F)cc1)[C@@H](C)CO	inactive: 0.872
C[N+](C)(C)CCCC[C@@H]1NC(=O)[C@@H]2C[C@H](C(=O)NCCCCCCNC(=O)CS)[C@H](c3cccc(OCCO)c3)N2C1=O	inactive: 1.01
O=C(C[C@H]1CC[C@H]2[C@@H](COC[C@@H](O)CN2S(=O)(=O)c2ccc(Cl)cc2)O1)NCc1ccncn1	inactive: 0.988
COc1ccc(NC(=O)Nc2ccc3c(c2)[C@@H]2C[C@@H](CC(=O)NCc4ccncc4)O[C@H](CO)[C@@H]2O3)cc1	inactive: 0.937
Cc1noc(C)c1S(=O)(=O)N(C)C[C@@H]1OCCCC[C@H](C)Oc2ccc(NC(=O)Nc3cccc4ccccc34)cc2C(=O)N([C@H](C)CO)C[C@H]1C	inactive: 1.04
C[C@@H]1CC=CC[C@@H](c2cccc(Cl)c2)NC(=O)[C@H](Cc2ccccc2)N(C)C(=O)c2ccccc2O1	inactive: 1.03
Cc1cc(C(=O)Nc2cccc3c2O[C@@H](CN(C)C(=O)Nc2c(C)noc2C)[C@@H](C)CN([C@@H](C)CO)C3=O)n(C)n1	inactive: 0.884
CCCn1c(=O)[nH]c2nc(-c3ccc(S(=O)(=O)N4CCN(c5ccc(Cl)cc5)CC4)cc3)[nH]c2c1=O	inactive: 1.01
COc1ccc(S(=O)(=O)Nc2cccc3c2O[C@@H](CN(C)S(=O)(=O)c2cccs2)[C@H](C)CN([C@H](C)CO)C3=O)cc1	inactive: 1.01
C[C@H]1CCCCO[C@H](CN(C)S(=O)(=O)c2ccc(Cl)cc2)[C@@H](C)CN([C@@H](C)CO)C(=O)c2cc(NS(=O)(=O)c3ccccc3)ccc2O1	inactive: 1.03
C=CCC[C@@H](Cc1ccc(F)cc1)C(=O)O[C@@H](CNC(=O)[C@H](CC=C)CC(=O)N(CCO)Cc1ccccc1)c1ccccc1	inactive: 1.06
COc1ccc([C@@H]([C@H](Cc2ccccc2)OC(C)=O)N2C[C@@H](OC(C)=O)[C@@H]3C(=NO[C@H]3c3ccccc3)[C@@H]2Cc2ccccc2)cc1	inactive: 1.01
C[C@H](CO)N1C[C@H](C)[C@@H](CN(C)Cc2ccc(Cl)c(Cl)c2)OCCCC[C@H](C)Oc2ccc(NC(=O)Nc3ccc4c(c3)OCO4)cc2C1=O	inactive: 0.99
C[C@@H]1CN([C@@H](C)CO)C(=O)c2cc(NC(=O)NC3CCCCC3)ccc2O[C@@H](C)CCCCO[C@@H]1CN(C)C(=O)NC1CCCCC1	inactive: 0.971
Cn1cnc(S(=O)(=O)N2C[C@H](O)COC[C@H]3O[C@H](CC(=O)NC4Cc5ccccc5C4)CC[C@@H]32)c1	inactive: 0.996
C[C@@H]1CN([C@H](C)CO)C(=O)Cc2cc(NS(=O)(=O)c3cn(C)cn3)ccc2O[C@@H]1CN(C)C(=O)Nc1ccc(F)cc1	inactive: 0.983
CNC[C@H]1OCCCC[C@@H](C)Oc2ccc(NC(=O)Nc3cccc4ccccc34)cc2C(=O)N([C@H](C)CO)C[C@H]1C	inactive: 0.968

SMILES	relative growth
COc1ccc([C@@H](O)[C@@H](CCO)OC)cc1O	inactive: 0.988
C[C@H]1CN([C@@H](C)CO)C(=O)c2cc(NC(=O)Cc3ccccc3)ccc2O[C@H]1CN(C)S(=O)(=O)c1cn(C)cn1	inactive: 0.972
CCOC(=O)c1c(C)oc(N)c1C(N)=O	inactive: 0.956
C[C@H]1CN([C@@H](C)CO)C(=O)Cc2cc(NC(=O)Nc3ccc(F)cc3)ccc2O[C@H]1CN(C)S(=O)(=O)c1cn(C)cn1	inactive: 0.996
C[C@@H]1CN([C@H](C)CO)C(=O)c2cc(NC(=O)c3ccncc3)ccc2O[C@@H](C)CCCCO[C@H]1CN(C)Cc1ccc(Cl)c(Cl)c1	inactive: 0.963
COCCNC(=O)C[C@H]1C[C@@H]2c3cc(NS(C)(=O)=O)ccc3O[C@@H]2[C@@H](CO)O1	inactive: 1.03
C[C@@H]1CCCCO[C@H](CN(C)S(=O)(=O)c2cccs2)[C@@H](C)CN([C@H](C)CO)C(=O)c2cc(NC(=O)c3ccccc3)ccc2O1	inactive: 1.07
C[C@@H]1CN([C@@H](C)CO)C(=O)Cc2cc(NC(=O)Nc3ccc(F)cc3)ccc2O[C@@H]1CN(C)C(=O)Nc1cccc2ccccc12	inactive: 0.987
Nc1nnc(C(F)(F)F)[nH]1	inactive: 1.02
COc1ccc(COC[C@]23NC(=O)N(C(=O)c4ccccc4)[C@H](c4ccccc4O2)[C@H]3CO[Si](C)(C)C(C)(C)C)cc1	inactive: 1.02
C[C@@H]1CN(CCO[Si](C)(C)C(C)(C)C)C(=O)c2cc(NC(=O)Nc3ccccc3)ccc2O[C@@H](C)CCCCO[C@H]1CN(C)S(=O)(=O)c1ccc(F)cc1	inactive: 1
C[C@@H]1CN([C@H](C)CO)C(=O)c2cc(NS(=O)(=O)c3ccccc3)ccc2O[C@@H]1CN(C)S(=O)(=O)c1ccccc1	inactive: 1.01
CCS(=O)(=O)N1C[C@]2(CN(Cc3ccc4c(c3)OCO4)[C@@H](CO)c3c2c2ccc(cc2n3C)OC)C1	inactive: 1.02
C[C@H]1CN([C@@H](C)CO)S(=O)(=O)c2ccc(-c3cccnc3)cc2O[C@H]1CN(C)C(=O)NC1CCCC1	inactive: 1.05
COc1ccc(CN(C)C[C@H]2OCCCC[C@@H](C)Oc3ccc(NC(=O)Nc4cccc5ccccc45)cc3C(=O)N([C@@H](C)CO)C[C@@H]2C)cc1	inactive: 0.979
CC(C)CC#Cc1ccc2c(c1)O[C@@H](CN(C)C(=O)Cc1cccnc1)[C@H](C)CN([C@@H](C)CO)S2(=O)=O	inactive: 0.998
C[C@H](CO)N1C[C@H](C)[C@@H](CN(C)C(=O)Nc2cccc3ccccc23)Oc2c(NC(=O)Nc3ccc(C(F)(F)F)cc3)cccc2C1=O	inactive: 0.767
COc1ccc(NC(=O)Nc2cccc3c2O[C@@H](CN(C)C(=O)Nc2cccc4ccccc24)[C@@H](C)CN([C@@H](C)CO)C3=O)cc1	inactive: 1.01
